Our source for the ETS1 binding intensity values is the supplement of paper PMC10681739.

Whole data set: some 2,700 sequences, median “arbitrary fluorescence units” near 4,100, cut for the highest 2% near 54,000. This is one part of the list.

In the assay the target is T1, ETS1 (UniProt P14921).
T1 sequence: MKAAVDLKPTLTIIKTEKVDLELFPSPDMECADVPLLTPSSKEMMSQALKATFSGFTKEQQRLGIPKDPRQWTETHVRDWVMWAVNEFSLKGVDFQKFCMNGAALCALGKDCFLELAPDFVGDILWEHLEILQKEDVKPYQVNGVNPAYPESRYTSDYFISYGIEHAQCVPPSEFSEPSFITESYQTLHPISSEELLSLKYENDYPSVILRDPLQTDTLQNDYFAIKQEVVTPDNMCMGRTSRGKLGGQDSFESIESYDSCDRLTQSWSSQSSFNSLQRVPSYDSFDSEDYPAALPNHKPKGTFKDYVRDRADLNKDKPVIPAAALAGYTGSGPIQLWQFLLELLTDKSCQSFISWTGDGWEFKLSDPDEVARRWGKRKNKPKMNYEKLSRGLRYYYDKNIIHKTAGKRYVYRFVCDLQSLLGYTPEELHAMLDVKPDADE
The experiment in a line: ETS1 binding intensity (PBM fluorescence) (arbitrary fluorescence units); higher = stronger binding. As to conditions: ETS1 concentration 10 nM. Here is the method: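 gcPBM on wild-type 36-bp genomic probes with two neighbouring ETS1 sites (4-24 bp apart). Recombinant human ETS1 (10 nM) was detected with anti-ETS1 antibody fluorescence. Values are medians over 3 replicate spots. The probes sit in constant array flanks that are not printed.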
As to GTCTGTTAGCACAGGAAACAGGATGGGTGTCAGTGA, the ETS1 binding intensity turned out to be 1320.
Then GTCACCTTTCCTGTCAGCACTTTGGCTTCCTCACCC, with 7800; and ATAAGGGAAATGGGTACCTCCCGAGGAGGAAGTTTA, with 377; and AGATCGCTGGCTTCCTGTGTTTTTCCTGGACTCAGG, with 14800.
In the case of GAGGGAGGTGCAGGAAAGTCGGAAGGCATTAGGGTA it was 179.
In the case of ATTACTGCTTCCTGTTTTTAAACAGGATTGAAAGGA it was 23900; in that of GGGGCGGGGCCCGGAAGAGCAGGATGGCGGCGCGGG, 784; in that of TTCTTGCATTTCCGAGTACTCTAAGGAAATCATTGA, 1180.
Turning to TGCAGTGTTCCGCTGAGCTCAAGTTCTTCCTGTGCT, the ETS1 binding intensity was determined as 589.
In the case of CCAGCCCCATTTCCCATGAGGCTTCCTGTGCTTGGA it was 3130; in that of AGCCCTTCCTGCTTCTTGAAATACTCATATCCTCTG, 14200; in that of ACCAGTGGGGGATGTGCATGACCAGGAAACCCCCAG, 176.
In the case of TCACCATAGGAAACATGAAGTCACATCCTGGTCAAA it was 597; in that of TAGTGCTTCCGGGTCACCCCGGCCCAGGAAGGCGCA, 24900; in that of TAAGTGCTTTACTTCCTACTGGGAAATGGCTTGACT, 1530.
In the case of GCCCGCGCCCAGGAAGGAGGGCTTCCGCCCGGGTGA it was 2470.
Sequence CAGCTACACCACTTCCTCAGCTTCCTCCATAGTGAG registered an ETS1 binding intensity of 3940.
Then GAAGGTCGTAGCAGGAAGAAGGAAGTATTCTCTGGA, with 844; and CGACCACTTCCGTGTCCACGTCACCTTCCGCGACCA, with 16700; and TTGTGCCGCTTCCGCAAGAAGGTTTCCTGGCCTGTT, with 9140.
Then AAACATCTGGGGCGGAAACGGAAGCATGGCCGCAGC, with 3700; and AGAAACGGAAAGAAAGTGACCCCTCCCTTCCTTTCA, with 175; and CTGCACGTTGCAAGGATATCGGATATGACTAACATG, with 408.
TGACGGGAGGCTTCCCGGAGAAGGAAGTGGGGTGCG displayed an ETS1 binding intensity of 252.
Then GTTCATTTATGCAGGAAGAGGAAACCTAGCAAGCTC, with 359; and GACAGGAAACGGGGTCCCTGGCGCTAGGTTCCGGCC, with 6680.
In the case of AAAACACACATCCCTAAAGAAACAGGAAGCCACCAT it was 1110; in that of ACACATCCCAGCTATGCTCCCCTCTAGCGGATGCTG, 264.
Then TTTGAAATCACAGCTTCCTTCCTGTTGCAACTTAGC, with 4360.
Regarding TTAGGCACTTCCTTTCCCCCTTCCTTGCACCTGTTC, the ETS1 binding intensity came out at 15100.
With GCGTTGAGTCGTTTCCTGCCGGATGACCCGACCCTT, the ETS1 binding intensity was determined as 14500.
Then AGGCAGGAAACCCGGCCGTCCTCAAGCAGGAAAGCT, with 1160; and AAAGGCACTTCCTATTCAGTAATGGGAAGTGGGCAA, with 10800; and GCAAAACTACAGGGGATGTTTCCTGTGCGCCTCCAG, with 3120.
Then GCCTTCAATTTCCGTAGGGAACCTTCCTCCCAGTGA, with 6860; and CAGGCCGGAAGTACGTGAGAGGAGACTTCCGGCCAC, with 31200; and GATGGTTCCGCTCTACGCGGGGTGACGGGAAACCGC, with 3230.
In turn, CATTCAGGAAATGTGGTACACAAAGCAGGATGTATA yielded an ETS1 binding intensity of 1900.
On to AACCATGAGCAGGAAGGCTATTTCCTCCTTAACTAT, for which the ETS1 binding intensity was 1070.
In the case of AACGGACGGAAAGGCTTCTTTCACCGGAAGCACAGA it was 2270.
Sequence TCCAGAGGAAACTGCCAGGACCACAGTTCCTGTTGC came in with an ETS1 binding intensity of 373.
In the case of CCCCGGTCCGCTTCCTGTGGCTTCCGCTCTGGCCAT it was 21700; in that of ACAGCTTCCGGGGGCGAAGGACTGGGTTTCCTGCCC, 35700; in that of ACCAGGAGGAAGTCGGCTCCGGGGCGGAACCTGGAC, 1740.
Then AGGAGTTTCCTGTCCCTCTGGGTGGGGGAAGTAGGC, with 24500; and ACCCCCTGGCGGATGCTGTGTGTTTCCTGTGCTTAG, with 3420; and CAGGAGGAAGCGGCGAGTCAGCGCGGCGGAAAGGGC, with 240.
Then AGGACAGGAAACTGGAGATGATTAGACATCCTTTAT, with 4600.
As for GTGACAGGATGGTCTGGCGACCACATTTCCCGGCAG, the ETS1 binding intensity was found to be 328.
In the case of TCCTGGTCTCTCTTCCTGCAGGATGTACCCTGCCCA it was 2160; in that of GAGAGAATACCGGAAGCAAGCAGGAAATAGCCACTA, 26100.
Then CTTTTCCCAGGAAGCCATTTCATTTCCTTTCATTAG, with 1800.
In the case of TACAAGCAGGATAATTGGACAGGGTTTCCGGCAACG it was 673; in that of GCCCCCCAGCTTCCTTCCTGGATCTGTCTATTGTTG, 4060.
In the case of GCGGCCTACGCCGGAAGAACGGAAATAAGAGCTTCG, the ETS1 binding intensity came to 6560.
In turn, CGGACGGAAGCTCCCGCCCTGCGGTGCCGGATGGCC showed an ETS1 binding intensity of 892.
In the case of ACACATCCTGAATTCTGAAAGAATGTGCTTCCTGAA, the ETS1 binding intensity is 15600.
Then GTCACTTCCGGCCCCGAGTTCGAGCCGCTTCCGGGT, with 115000.
In the case of TCACAGTTCCGCTTGGCTAGAGGGACTTCCTGAAAC it was 6230; in that of CAGCGACCCGGAAACACTCGGCCCGGAAATGATGTC, 4940; in that of ACCGCCCGGAAGTGACGCGCCCGCGCATCCGGCCAC, 19800.
Then AAGTCAGGAAACAACAGATGCTGGAGAGGATGTGGA, with 368.
Sequence AGTGGGGAGGAAGAAAAAGCTGGCTTCCTGCAAGCC displayed an ETS1 binding intensity of 513.
Consider AACGCCTTGGAACAGGAAGGAAGCAATGACTCAAAG, for which the ETS1 binding intensity is 693.
In the case of GAGGCCAGGAAGCGGCGGGAGCTACTTCCCCTGATC it was 1860; in that of AGCCTCGACTTCCTGGGCCAAGCCATCCTGCCGCCT, 9090.
In the case of GCCTGCCACATCCTGGCCATCTACTTCCTCTTAAAC it was 14700.
Then TCACTTCCTGAACACGCTTTGGCTGGCTTTCCTGTG, with 26100; and CAGGAGGAAGTGCTGCCTCATGCAGGACGGAAGGGC, with 1090; and TGCGGTGGCAGCTTCCTTGCGGAAGTGGTGACCGTG, with 1710.
AAACGTCACTTCCTGCGACACGCAGGAAACAAAGGC had an ETS1 binding intensity of 28100.
As for GGGCATCCGCAGCGAGTCCCTCCCCGGTTTCCGGGC, the ETS1 binding intensity turned out to be 7180.
In the case of CTAACGCAACTCAGGAAACTTCCTTTCATTAATTTT it was 639.
On to CACATTTGCAGAGCTTCCTTCCGGGACTTCGTGGCA, for which the ETS1 binding intensity worked out at 2240.
In the case of AGTAGGTTGCATCCTGTTTACACATCCTGTTAGGAC it was 19800.
For the sequence TTAAGCAGTTTCCTGGTCTGGCAGGATTTGTTATCT, the ETS1 binding intensity was 4500.
In the case of AACGGGAAGCGAGGCCTCATTGGCCAGTATCCGCCT it was 184; in that of CGGCGCAGAGGCAGGAAGAGGAAGCGGCACCCGCTT, 890.
In the case of ACAAAGGAAGTACTCAGTTACAATTACCTTCCTGTT it was 1080.
Then TCCAGGCTGATGCTTCCTCAGGAAGGACATGGGGGC, with 297.
